Read-outs that look alike come from different tables or passages of the source. Where only a bound is given, the exact number is not on record here.

Assay [1] relates to human mammary epithelial primary cells (HMEC). The settings on record: 120 h, read-out: Cell Line GI50 Range HMEC.
A further assay relates to SW620 colon cancer cells. It is filed as cell-based. The settings on record: Homo sapiens, 120 h; SW-620 colon cancer cell line; SRB assay after 5 days culture; read-out: Cell Line GI50 Range SW-620. On the technique in general: Sulforhodamine B stains cellular protein and so reports cell mass.
The subject of assay [2] is MCF-7 luminal breast cancer cell line. It is filed as cell-based. The settings on record: Homo sapiens, MCF7, 120 h; MCF-7 luminal breast cancer cell line; SRB assay after 5 days culture; read-out: Cell Line GI50 Range MCF-7.
Assay [3] deals with MDA-MB-468 basal breast cancer cell line. It is filed as cell-based. To be noted: Homo sapiens, 120 h; MDA-MB-468 basal breast cancer cell line; SRB assay after 5 days culture; read-out: Cell Line GI50 Range MDA-MB-468.
The test system of assay [4] is HCC1954 basal breast cancer cell line. It is filed as cell-based. The settings on record: Homo sapiens, HCC1954 basal breast cancer cell line, SRB assay after 5 days culture, read-out: Cell Line GI50 Range HCC-1954.
A further assay has as its system A549 lung cancer cells. It is filed as cell-based. The settings on record: Homo sapiens, 120 h; A549 lung cancer cell line; SRB assay after 5 days culture; read-out: Cell Line GI50 Range A-549.

What is called GI50 is the concentration giving 50% growth inhibition. In the case of `CN(C)Cc1ccc(/C=C/c2n[nH]c3cc(C4C[C@@]45C(=O)N(CC(N)=O)c4ccccc45)ccc23)cc1` (mixture of isomers) [Example A160, 2-((1R*,2S*)-(E)-2-(3-(4-((dimethylamino)methyl)styryl)-1H-indazol-6-yl)-2′-oxospiro[cyclopropane-1,3′-indoline]-1′-yl)acetamide 2,2,2-trifluoroacetate], the GI50 is more than 10000 nM in assay [1]; less than 100 nM in the assay with SW620 colon cancer cells; 1000 to 10000 nM in assay [2]; less than 100 nM in assay [3]; less than 100 nM in assay [4] (120 h); less than 100 nM in the assay on A549 lung cancer cells.

As for `Cc1cc(/C=C/c2n[nH]c3cc([C@@H]4C[C@@]45C(=O)Nc4ccccc45)ccc23)ccn1` (relative stereo) [Example A161, (1R*,2S*)-2-(3-((E)-2-(2-methylpyridin-4-yl)vinyl)-1H-indazol-6-yl) spiro[cyclopropane-1,3′-indolin]-2′-one], the GI50 is 100 to 1000 nM with SW620 colon cancer cells; 1000 to 10000 nM in assay [2]; 100 to 1000 nM in assay [3]; 1000 to 10000 nM in assay [4] (120 h); 100 to 1000 nM in the assay with A549 lung cancer cells.

Consider `COc1ccc2c(c1)[C@]1(C[C@H]1c1ccc3c(/C=C/c4ccc(N5CCNCC5)nc4)n[nH]c3c1)C(=O)N2` (relative stereo) [Example A163, (1R*,2S*)-5′-methoxy-2-(3-((E)-2-(6-(piperazin-1-yl)pyridin-3-yl)vinyl)-1H-indazol-6-yl)spiro[cyclopropane-1,3′-indolin]-2′-one 2,2,2-trifluoroacetate], for which the GI50 was less than 100 nM with SW620 colon cancer cells; less than 100 nM in assay [2]; less than 100 nM in assay [3]; 1000 to 10000 nM in assay [4] (HCC1954, 120 h); less than 100 nM in the assay on A549 lung cancer cells.

For `CN(C)Cc1ccc(/C=C/c2n[nH]c3cc([C@@H]4C[C@@]45C(=O)Nc4ncccc45)ccc23)cc1` (relative stereo) [Example A172, (1R*,2S*)-(E)-2-(3-(4-((dimethylamino)methyl)styryl)-1H-indazol-6-yl) spiro[cyclopropane-1,3′-pyrrolo[2,3-b]pyridin]-2′(1′H)-one 2,2,2-trifluoroacetate], the GI50 is less than 100 nM with SW620 colon cancer cells; 100 to 1000 nM in assay [2]; less than 100 nM in assay [3]; 1000 to 10000 nM in assay [4] (HCC1954, 120 h); less than 100 nM with A549 lung cancer cells.

Turning to `Cc1ccc2c(c1)[C@]1(C[C@H]1c1ccc3c(-c4ccc(N5CCN(C)CC5)cc4)n[nH]c3c1)C(=O)N2` (relative stereo) [Example A173, (1R*,2S*)-5′-methyl-2-(3-(4-(4-methylpiperazin-1-yl)phenyl)-1H-indazol-6-yl)spiro[cyclopropane-1,3′-indolin]-2′-one 2,2,2-trifluoroacetate], the GI50 (with SW620 colon cancer cells; in assay [2]; in assay [3]; in assay [4] (120 h); in the assay with A549 lung cancer cells) was 100 to 1000 nM throughout.

Turning to `O=C1Nc2ccc(F)cc2[C@]12C[C@H]2c1ccc2c(/C=C/c3ccc(N4CCOCC4)nc3)n[nH]c2c1` (relative stereo) [Example A207, (1R*,2S*)-5′-fluoro-2-(3-((E)-2-(6-morpholinopyridin-3-yl)vinyl)-1H-indazol-6-yl)spiro[cyclopropane-1,3′-indolin]-2′-one 2,2,2-trifluoroacetate], the GI50 in the assay on SW620 colon cancer cells was less than 100 nM; in assay [2], 100 to 1000 nM; in assay [3] it was 100 to 1000 nM; in assay [4] (HCC1954, 120 h), 1000 to 10000 nM; with A549 lung cancer cells, less than 100 nM.

On to `COc1ccc2c(c1)[C@]1(CC1c1ccc3c(/C=C/c4cc(F)c(CN(C)C)c(F)c4)n[nH]c3c1)C(=O)N2` (stereo in doubt) [Example A215, (1R*,2S*)-(E)-2-(3-(4-((dimethylamino)methyl)-3,5-difluorostyryl)-1H-indazol-6-yl)-5′-methoxyspiro[cyclopropane-1,3′-indolin]-2′-one 2,2,2-trifluoro acetate], for which the GI50 (in the assay with SW620 colon cancer cells; in assay [2]; in assay [3]; in assay [4] (120 h); in the assay with A549 lung cancer cells) was less than 100 nM throughout.

Source of the values: patent US8263596B2, “Kinase inhibitors and method of treating cancer” (University Health Network, priority 2010, dated 2012).
